# Experimental data: PubChem BioAssay (NCATS)
# “And” between values parts separate entries of the source, which are not always exact repeats. Identical values can stand only once. The shares of active, inactive and inconclusive entries below differ from those in the screen. Where the call is inconclusive, the potency comes from a doubtful curve fit. The source made the active and inactive calls. The call rests on the fitted dose curve; in most records, active means well fitted curve in the direction sought with a large enough effect; inconclusive means small, poorly fitted or top-dose-only effect, or another doubt; inactive means no such curve, though single readings can be large; an effect the other way counts as inactive or inconclusive.
# Columns and labels:
# [1] = Viability qHTS for spleen associated tyrosine kinase inhibitor (SYKi) naive MV4-11 cells (AID 1963823); details: MV4-11 AML viability, CellTiter-Glo luminescence, 72 h; viability (% of control): at 45 µM (top of the series); further: nearly all actives have a fitted effect of over 40% in size
# Procedure, shortened: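 CellTiter-Glo luminescence, 10 min room-temperature incubation, gave viability. Cells: naive MV4-11 (500/well), treated 72 hr at 37 C, 5% CO2.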
# [2] = Quantitative highthroughput screen to assess conditional lethalithy of NOMO1 cells grown in RPMI1640 with dialyzed fetal bovine serum (RPMI+ds) (AID 1963877); details: NOMO1 in RPMI+dialyzed FBS viability, ATP luminescence, 48 h; series mostly up to 45.8 µM; further: nearly all actives have a fitted effect of over 30% in size;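 on Viability: 100% = DMSO control wells and 0% = empty wells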
# Procedure, shortened: (§1)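 Each medium arm—HPLM with 10% dialyzed FBS, or RPMI1640 with 5 mM glucose and 10% untreated or dialyzed FBS—was screened against an 11-point, 3-fold compound titration for 48 h at 37 °C, with CellTiter-Glo luminescence as endpoint.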
# [3] = Quantitative highthroughput screen to assess conditional lethalithy of P12 Ichikawa cells grown in Human Plasma-Like Medium with dialyzed fetal bovine serum (HPLM+ds) (AID 1963879); details: ATP luminescence, 48 h; Potency: viability; series mostly up to 45.8 µM; further: nearly all actives have a fitted effect of over 35% in size
# Procedure, shortened: as §1
# [4] = Quantitative highthroughput screen to assess conditional lethalithy of P12 Ichikawa cells grown in RPMI1640 with dialyzed fetal bovine serum (RPMI+ds) (AID 1963880); details: ATP luminescence, 48 h; Potency: P12-Ichikawa viability; series mostly up to 45.8 µM; further: nearly all actives have a fitted effect of over 35% in size;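 on Viability: 100% = DMSO wells and 0% = empty wells on each plate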
# Procedure, shortened: as §1
# [5] = Quantitative highthroughput screen to assess conditional lethalithy of P12 Ichikawa cells grown in RPMI1640 with untreated serum (RPMI+s) (AID 1963881); details: ATP luminescence, 48 h; Potency: viability; series mostly up to 45.8 µM; further: nearly all actives have a fitted effect of over 35% in size;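 on Viability: 100% = DMSO wells and 0% = empty wells without cells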
# Procedure, shortened: as §1
# [6] = Cellular viability qHTS for adrenocortical cancer (ACC) cell line SW-13 (AID 1963989); details: SW-13 ACC cells viability, CellTiter-Glo, 48 h; activity (max response): stronger effect = lower value; further: nearly all actives have a fitted effect of over 65% in size;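 on activity (max response): cells grown in serum-free medium with ITS supplement; on the % scale 0 is the no-effect control and ±100 the full control effect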
# Procedure, shortened: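 Viability was read as CellTiter-Glo luminescence after 48 h compound treatment (up to 46 uM final) of SW-13 cells grown serum-free; titration curves were fit with a four-parameter logistic model to give IC50 and efficacy.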
# [7] = Cellular viability qHTS for adrenocortical cancer (ACC) cell line NCI-H295R (AID 1963990); details: CellTiter-Glo ATP luminescence, 48 h; activity change, negative = viability loss: at 46.1 µM (top of the series); further: nearly all actives have a fitted effect of over 60% in size;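 on activity change, negative = viability loss: 0% = DMSO only wells and -100% = full killing with cytotoxic reference compound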
# Procedure, shortened: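 CellTiter-Glo ATP luminescence, read 48 h after compound addition, measured viability of NCI-H295R adrenocortical cells grown serum-free with ITS. Final concentrations spanned up to 46 uM. Data normalized to DMSO and doxorubicin, fitted for IC50 and maximal response.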
# [8] = Quantitative highthroughput screen to assess conditional lethalithy of SEM cells grown in Human Plasma-Like Medium with dialyzed fetal bovine serum (HPLM+ds) (AID 1963882); details: SEM B-ALL cells in HPLM+ds, CellTiter-Glo viability, 48 h; series mostly up to 45.8 µM; further: nearly all actives have a fitted effect of over 35% in size
# Procedure, shortened: as §1
# [9] = Quantitative highthroughput screen to assess conditional lethalithy of SEM cells grown in RPMI1640 with unreated serum (RPMI+s) (AID 1963883); details: SEM B-ALL cells, CellTiter-Glo viability, 48 h; viability: at 45.8 µM (top of the series); further: nearly all actives have a fitted effect of over 35% in size;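 on Viability: 100% = DMSO wells and 0% = empty wells without cells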
# Procedure, shortened: as §1
# [10] = Quantitative highthroughput screen to assess conditional lethalithy of SEM cells grown in RPMI1640 with dialyzed fetal bovine serum (RPMI+ds) (AID 1963884); details: SEM B-ALL cells, RPMI+dialyzed FBS, CellTiter-Glo viability, 48 h; viability: at 45.8 µM (top of the series); further: nearly all actives have a fitted effect of over 35% in size
# Procedure, shortened: as §1
# [11] = Quantitative highthroughput screen to assess conditional lethalithy of NOMO1 cells grown in Human Plasma-Like Medium with dialyzed fetal bovine serum (HPLM+ds) (AID 1963878); details: NOMO1 AML cells in HPLM+ds, CellTiter-Glo viability, 48 h; viability: at 45.8 µM (top of the series); further: nearly all actives have a fitted effect of over 35% in size
# Procedure, shortened: as §1
# Potency means the concentration at half of the fitted maximal effect; tags describe the fitted curve by direction and shape.
compound,measurement,setting,value
Cn1cnc2c(F)c(Nc3ccc(Br)cc3Cl)c(C(=O)NOCCO)cc21,Potency,[1],"inconclusive: 750 nM [cytotoxic, full curve] and inconclusive: 517 nM [cytotoxic, full curve]"
same,Potency,[2],active: 0.296 µM
same,Potency,[3],active: 0.662 µM
same,Potency,[4],active: 0.743 µM
same,Potency,[5],active: 0.662 µM
same,Potency,[6],"inconclusive: 8.2 µM [cytotoxic, partial curve] and inconclusive: 12.6 µM [cytotoxic, partial curve]"
same,Potency,[7],"inconclusive: 8.2 µM [cytotoxic, partial curve, poor fit]"
CC1(CN2CCC(n3c(=O)[nH]c4ccccc43)CC2)OCc2ccccc2-n2cccc21 (stereo not given),Potency,[1],"inconclusive: 10.6 µM [cytotoxic, partial curve] and inconclusive: 9.2 µM [cytotoxic, partial curve]"
same,Potency,[2],"inconclusive: 20.9 µM [cytotoxic, partial curve, poor fit]"
same,Potency,[8],"inconclusive: 11.8 µM [cytotoxic, single point]"
same,Potency,[9],inactive
same,Potency,[6],active: 20.6 µM and active: 25.1 µM
same,Potency,[7],"active: 23.1 µM and inconclusive: 35.5 µM [cytotoxic, single point]"
COc1ccc2c(c1OC)C(=O)OC2[C@H]1c2c(cc3c(c2OC)OCO3)CCN1C (stereo not given in full),Potency,[1],"inconclusive: 5900 nM [cytotoxic, partial curve, poor fit]"
same,Potency,[2],active: 0.332 µM
same,Potency,[3],active: 0.469 µM
same,Potency,[4],active: 0.59 µM
same,Potency,[5],active: 0.418 µM
same,Potency,[10],active: 0.187 µM
same,Potency,[7],active: 25.1 µM
Nc1cccc2c1C(=O)N(C1CCC(=O)NC1=O)C2=O (stereo not given),Potency,[1],"inconclusive: 23.5 nM [cytotoxic, full curve]"
same,Potency,[2],inactive
same,Potency,[3],"inconclusive: 20.9 µM [cytotoxic, single point]"
same,Potency,[4],active: 14.8 µM
same,Potency,[8],"inconclusive: 37.2 µM [cytotoxic, single point]"
same,Potency,[9],"inconclusive: 9.35 µM [cytotoxic, partial curve]"
same,Potency,[10],"inconclusive: 20.9 µM [cytotoxic, partial curve, poor fit]"
CN(NC(=O)CC(=O)NN(C)C(=S)c1ccccc1)C(=S)c1ccccc1,Potency,[1],"inconclusive: 16.4 nM [cytotoxic, full curve] and inconclusive: 4.2 nM [cytotoxic, full curve]"
same,Potency,[2],active: 0.0588 µM
same,Potency,[3],active: 0.0831 µM
same,Potency,[6],"inconclusive: 0.0178 µM [cytotoxic, full curve, poor fit]"
same,Potency,[7],"inconclusive: 0.0251 µM [cytotoxic, full curve, poor fit]"
Cc1ccc(NC(=O)c2ccc(CN3CCN(C)CC3)cc2)cc1Nc1nc(-c2cccnc2)cs1,Potency,[1],active: 11.6 µM and active: 14.8 µM
same,Potency,[2],"inconclusive: 5.26 µM [cytotoxic, partial curve, poor fit]"
same,Potency,[3],"inconclusive: 9.35 µM [cytotoxic, partial curve]"
same,Potency,[4],"inconclusive: 3.72 µM [cytotoxic, full curve]"
same,Potency,[8],"inconclusive: 0.0418 µM [cytotoxic, full curve, poor fit]"
same,Potency,[9],"inconclusive: 0.332 µM [cytotoxic, full curve]"
same,Potency,[10],"inconclusive: 0.332 µM [cytotoxic, full curve]"
same,Potency,[6],active: 25.1 µM
same,Potency,[7],active: 22.4 µM
O=S(=O)(O)CCSSCCS(=O)(=O)O,Potency,[1],inactive
same,Potency,[2],inactive
same,Potency,[5],inactive
same,Potency,[9],inactive
CN(C)CC(C)(C)CNc1nn2c(-c3ccccc3)nnc2cc1C1CCC1,Potency,[1],"inconclusive: 14800 nM [cytotoxic, partial curve]"
same,Potency,[2],"inconclusive: 37.2 µM [cytotoxic, single point]"
same,Potency,[3],active: 10.5 µM
same,Potency,[5],active: 16.6 µM
same,Potency,[8],"inconclusive: 18.7 µM [cytotoxic, partial curve, poor fit]"
same,Potency,[9],"inconclusive: 10.5 µM [cytotoxic, partial curve, poor fit]"
same,Potency,[10],"inconclusive: 9.35 µM [cytotoxic, full curve, poor fit]"
same,Potency,[7],"inconclusive: 22.4 µM [cytotoxic, partial curve, poor fit]"
CN(C)C(=O)c1ccc(S(=O)(=O)c2ccc(NC(=O)[C@@](C)(O)C(F)(F)F)c(Cl)c2)cc1,Potency,[1],"inconclusive: 4.61 µM [cytotoxic, full curve] and inconclusive: 3.72 µM [cytotoxic, full curve]"
same,Potency,[2],"inconclusive: 20.9 µM [cytotoxic, single point]"
same,Potency,[3],"inconclusive: 26.4 µM [cytotoxic, single point]"
same,Potency,[4],"inconclusive: 10.5 µM [cytotoxic, partial curve]"
same,Potency,[8],"inconclusive: 37.2 µM [cytotoxic, single point]"
same,Potency,[10],"inconclusive: 18.7 µM [cytotoxic, partial curve]"
same,Potency,[6],"inconclusive: 10 µM [cytotoxic, full curve]"
O=C1c2ccccc2-[n+]2ccc3c([nH]c4ccccc43)c21,Potency,[1],active: 820 nM
same,Potency,[2],active: 5.9 µM
same,Potency,[10],active: 3.32 µM
Cc1cc(Nc2ncc(Cl)c(Nc3ccccc3S(=O)(=O)C(C)C)n2)c(OC(C)C)cc1C1CCNCC1,Potency,[1],"active: 2.59 µM and inconclusive: 1.66 µM [cytotoxic, full curve]"
same,Potency,[2],active: 18.6 µM
same,Potency,[9],"inconclusive: 16.6 µM [cytotoxic, partial curve]"
C=CC(=O)Nc1cc2c(Nc3ccc(F)c(Cl)c3)ncnc2cc1C#CC(C)(C)N1CCN(C)CC1,Potency,[1],active: 590 nM
same,Potency,[2],active: 5.26 µM
same,Potency,[5],active: 5.9 µM
same,Potency,[8],active: 2.96 µM
same,Potency,[9],active: 2.96 µM
same,Potency,[10],active: 3.32 µM
Cc1c(OCC(F)(F)F)ccnc1CS(=O)c1nc2ccccc2[nH]1 (stereo not given),Potency,[1],"inconclusive: 23500 nM [cytotoxic, partial curve]"
same,Potency,[2],inactive
same,Potency,[6],"inconclusive: 20.6 µM [cytotoxic, partial curve, poor fit]"
Cc1ccccc1C(=O)Nc1ccc(C(=O)N2CCCC(O)c3cc(Cl)ccc32)c(C)c1 (stereo not given),Potency,[1],"inconclusive: 18600 nM [cytotoxic, partial curve]"
same,Potency,[2],inactive
same,Potency,[9],inactive
same,Potency,[6],"inconclusive: 29.1 µM [cytotoxic, single point]"
same,Potency,[7],active: 16.4 µM
CCCCn1c(=O)n(Cc2ccccc2F)c(=O)c2[nH]c(Cc3ccc(NC(C)=O)cc3)nc21,Potency,[1],"inconclusive: 33200 nM [cytotoxic, single point]"
same,Potency,[2],"inconclusive: 0.105 µM [cytotoxic, full curve, poor fit]"
same,Potency,[8],inactive
Oc1cccc(-c2nc(N3CCOCC3)c3oc4ncccc4c3n2)c1,Potency,[1],"inconclusive: 209 nM [cytotoxic, full curve]"
same,Potency,[2],inactive
same,Potency,[3],"inconclusive: 21.5 µM [cytotoxic, full curve]"
same,Potency,[8],active: 15.2 µM
same,Potency,[9],active: 1.91 µM
same,Potency,[6],"inconclusive: 0.501 µM [cytotoxic, full curve]"
same,Potency,[7],"inconclusive: 0.708 µM [cytotoxic, full curve]"
CCNC(=O)c1cc2c(-c3cc(OCCN4CCCC4)c(Cl)cc3Cl)nc(N)nc2s1,Potency,[1],"inconclusive: 115 nM [cytotoxic, full curve]"
same,Potency,[11],active: 4.18 µM
same,Potency,[3],"inconclusive: 3.32 µM [cytotoxic, full curve]"
same,Potency,[4],"inconclusive: 2.64 µM [cytotoxic, full curve]"
same,Potency,[5],"inconclusive: 2.64 µM [cytotoxic, full curve]"
same,Potency,[9],"inconclusive: 2.64 µM [cytotoxic, full curve]"
same,Potency,[6],active: 1.6 µM
CN(C)CCCNC(=O)c1ccc(-c2cc(O)c3ncccc3c2)cc1,Potency,[1],"active: 5.8 µM and inconclusive: 16.6 µM [cytotoxic, partial curve]"
same,Potency,[11],"inconclusive: 18.7 µM [cytotoxic, partial curve, poor fit]"
same,Potency,[4],inactive
same,Potency,[5],"inconclusive: 37.2 µM [cytotoxic, single point]"
same,Potency,[8],"inconclusive: 20.9 µM [cytotoxic, partial curve]"
same,Potency,[9],"inconclusive: 23.5 µM [cytotoxic, partial curve]"
same,Potency,[6],"inconclusive: 35.5 µM [cytotoxic, single point]"
same,Potency,[7],active: 12.6 µM
CC[C@@H]1C(=O)N(C)c2cnc(Nc3ccc(C(=O)NC4CCC(N5CCN(CC6CC6)CC5)CC4)cc3OC)nc2N1C(C)C (stereo not given in full),Potency,[1],"active: 20.6 nM and inconclusive: 26.3 nM [cytotoxic, full curve]"
same,Potency,[11],"inconclusive: 0.0526 µM [cytotoxic, full curve]"
same,Potency,[3],active: 0.0332 µM
same,Potency,[4],"inconclusive: 0.059 µM [cytotoxic, full curve]"
same,Potency,[8],active: 0.0296 µM
same,Potency,[10],active: 0.059 µM
same,Potency,[6],active: 0.0501 µM
same,Potency,[7],active: 1.41 µM
CC(C)(C)C(=O)OCOP(=O)(COCCn1cnc2c(N)ncnc21)OCOC(=O)C(C)(C)C,Potency,[1],active: 944 nM and active: 372 nM
same,Potency,[11],active: 1.18 µM
same,Potency,[3],active: 0.526 µM
same,Potency,[4],"inconclusive: 0.469 µM [cytotoxic, full curve]"
same,Potency,[6],"inconclusive: 164 nM [cytotoxic, full curve] and inconclusive: 5.01 µM [cytotoxic, partial curve]"
COc1ccc2cc([C@H](C)C(=O)O)ccc2c1,Potency,[1],inconclusive: 0.9 nM
same,Potency,[11],"inconclusive: 37.2 µM [cytotoxic, single point]"
same,Potency,[4],"inconclusive: 37.2 µM [cytotoxic, single point]"
same,Potency,[8],"inconclusive: 7.43 µM [cytotoxic, partial curve]"
same,Potency,[9],active: 9.35 µM
same,activity (max response),[6],inactive: 13.9% and inactive: -10.9%
same,Potency,[7],inactive
